In all, about 52,000 compounds went through this assay and about 4,300 (8.3%) were called active. No stated cut-off is given here; in the data, active means survival mostly below about 52% (no sharp cut-off); inactive means mostly above about 56%. Some of the results follow.

The subject of this assay is DeltatarO mutant. Put plainly: S. aureus survival, RN4220 and DeltatarO strains – OD600, teichoic acid synthesis inhibitors, primary screen (AID 463173). As to conditions: S. aureus RN4220 wild type/DeltatarO growth, OD600, 18 h, active compounds read low, screened at 18.75 µg/mL (by protocol).
Consider `O=C(CCOc1ccccc1)N(Cc1cccnc1)c1nc2c(F)cc(F)cc2s1`, for which the survival is inactive: 97%.
`COc1cc(OC)c(NC(=O)N2CCSc3ccccc32)cc1Cl`: the survival was inactive: 74%.
Take `COc1ccc(CNC(=O)c2cnc3sc(N4CCOCC4)nn3c2=O)cc1`: the survival is inactive: 129%.
As to `CC(C)(C)OC(=O)N1CCN(c2ccc(NC(=O)c3cc4ccccc4oc3=O)cc2)CC1`, the survival was inactive: 97%.
To `O=C(CSC1=Nc2ccccc2C2=NC(CCC(=O)NC3CCCCC3)C(=O)N12)Nc1cccc(C(F)(F)F)c1` (configuration not stated) belongs inactive: 80%; to `COc1ccc(C(=O)Nc2cc3c(cc2C(=O)c2ccccc2Cl)OCCO3)cc1`, inactive: 69%; to `CCc1ccccc1N1CC(c2nc3ccccc3n2CCCOc2ccc(Cl)cc2)CC1=O` (configuration not stated), active: 41%.
For the compound `COc1ccccc1CNC(=O)c1cc2cc3ccc(Cl)cc3nc2o1`, the survival was inactive: 84%.
To `COc1ccc(CCNC(=O)CCc2c(C)nc3c(c(C)nn3-c3ccc(C)c(C)c3)c2C)cc1OC` belongs inactive: 57%; to `CCOc1ccccc1NC(=O)Cn1c(=O)n(CCC(=O)NCc2ccc3c(c2)OCO3)c(=O)c2ccccc21`, inactive: 114%.
To `COc1cc(OC)c(NC(=O)c2csc3c2CCC(C)C3)cc1Cl` (configuration not stated) belongs inactive: 109%.
As to `CCC1(C)Cc2ccccc2-c2[nH]c(=S)[nH]c(=O)c21` (configuration not stated), the survival is inactive: 114%.
Regarding `COc1ccccc1N1CCN(c2ccc(NC(=O)c3ccc(C)cc3)cc2C(=O)O)CC1`, the survival is inactive: 89%.
Take `Cc1ccc(NC(=O)CCCn2c(=O)c3cccn3c3ccccc32)c(Cl)c1`: the survival was inactive: 51%.
Under `Cc1c(CNC2CCCCC2)c(C(=O)O)c(C)n1Cc1c(F)cccc1Cl` stands inactive: 83%; under `Cn1c(N)c(C#N)c2c(c1=S)CCCC2`, inactive: 85%; under `CCOC(=O)N1CCc2c(sc3c2c(=O)n(-c2ccccc2)c(=O)n3CC(=O)Nc2ccc(OC)cc2OC)C1`, inactive: 83%.
Under `COc1ccc(NC(=O)CN2CCN(Cc3ccccc3)S2(=O)=O)c(OC)c1` stands inactive: 120%; under `CCOc1ccc(OCC)c(NC(=O)c2cc(S(=O)(=O)N3CCCC3)cn2C)c1`, inactive: 69%.
To `CCOC(=O)c1c(C)oc2nc(C)nc(NCCCN3CCN(c4ccccc4)CC3)c12` belongs inactive: 67%; to `CC(O)c1nc2cc3ccccc3cc2[nH]1` (configuration not stated), inactive: 105%; to `COC(=O)C(CCSC)NC(=O)C1CCN(c2ncnc3c2nc2n3CCCCC2)CC1` (configuration not stated), inactive: 84%.
With `CCOc1ccc(NC(=O)CCc2c(C)nc3nc(C)nn3c2C)cc1`, the survival is inactive: 92%.
Under `CCOC(=O)c1c(NC(=O)CCCOc2ccccc2C)sc2c1CCC(C)C2` (configuration not stated) stands active: 16%.
To `C/C(=N/OCC(=O)Nc1sc2c(c1C#N)CCCC2)c1cccs1` belongs inactive: 80%; to `Fc1ccc(-n2ncc3c(NC4CCCCCC4)ncnc32)cc1`, inactive: 74%.
Consider `COc1ccccc1CNC(=O)c1ccc(Cn2c(SCc3ccccc3)nc3cccnc32)cc1`, for which the survival was active: 37%.
Consider `CCNC(=O)CC1C(=O)N(c2ccc(F)cc2)C(=O)N1CCOC` (configuration not stated), for which the survival is inactive: 84%.
Under `N#Cc1ccccc1CN1C(=O)c2ccccc2Sc2ccc(C(=O)OCc3ccco3)cc21` stands inactive: 82%; under `O=C(CCc1ccccc1)NCc1nc2cccnc2n1Cc1ccc(F)cc1`, active: -4%.
In the case of `CCOc1ccc(C(=O)N2CCC(c3nnc(-c4ccccc4OC)o3)CC2)cc1`, the survival was inactive: 118%.
In the case of `CC(C)(C)OC(=O)N1CCC(c2c(C(=O)N3CCN(C(=O)c4ccco4)CC3)cnn2-c2ccc(F)cc2F)CC1`, the survival is inactive: 109%.
To `CCOc1ccc(-n2nc3ccc(NC(=O)Cc4ccccc4)cc3n2)cc1` belongs inactive: 74%; to `CCCOC(=O)c1c(NC(=O)c2cc3ccccc3c(=O)o2)sc2c1CCC(C)C2` (configuration not stated), inactive: 112%; to `Cc1ccc(-c2nnc3c4ccccc4c(C)nn23)cc1NC(=O)c1ccccc1`, inactive: 81%.
`COc1ccc(-c2cn3c(C)c(C(=O)Nc4cc(C)cc(C)c4)sc3n2)cc1`: the survival was inactive: 77%.
To `Cc1cc(-c2ccc(C)c(S(=O)(=O)N3CCOc4ccc(Cl)cc43)c2)on1` belongs inactive: 79%.
For `CCc1ccccc1-n1c(N)c(C(=O)OC)c2nc3ccccc3nc21`, the survival is inactive: 74%.
In the case of `CCc1cccc(NC(=O)CN(C)S(=O)(=O)c2ccc3[nH]c4c(c3c2)CCCC4)c1`, the survival is inactive: 101%.
On to `COC(=O)c1sc2cccc(F)c2c1S(=O)(=O)N1CCN(c2cccc(C)c2)C(C)C1` (configuration not stated), for which the survival was inactive: 94%.
As to `COc1ccc(CCNc2ncnc3c2nnn3C)cc1`, the survival is inactive: 89%.
Regarding `Cc1nc2ccc(S(=O)(=O)N(CC(=O)Nc3ccc(F)cc3)Cc3ccccc3)cc2s1`, the survival was inactive: 89%.
For `CC1CCc2c(sc(NC(=O)CCCOc3ccccc3)c2C(N)=O)C1` (configuration not stated), the survival was inactive: 78%.
`CCOc1cc(C(=O)Nc2ccc3c(c2)n(C)c(=O)c(=O)n3C)cc(OCC)c1OCC`: the survival is inactive: 84%.
`CCOc1ccc(-n2c(SCC(=O)Nc3ccc(CC)cc3)nc3c(oc4ccccc43)c2=O)cc1`: the survival is inactive: 71%.
For the compound `CCn1c(COc2ccccc2)nnc1SCC(=O)CC(=O)Nc1ccccc1OC`, the survival was inactive: 71%.
In the case of `O=C(Nc1ccc(OC(F)(F)F)cc1)c1noc2c1CCCC2`, the survival is inactive: 65%.
To `CCOC(=O)CCc1c(C)nc2cc(-c3cc(OC)cc(OC)c3)[nH]n2c1=O` belongs inactive: 90%; to `COc1cc(NC(=O)c2cc(-c3cccc(OC)c3)n[nH]2)cc(OC)c1`, inactive: 80%.
As to `COC(=O)c1ccc(NC(=O)CC2C(=O)N(c3cccc(OC)c3)C(=O)N2C(C)C)cc1` (configuration not stated), the survival is inactive: 88%.
Regarding `COc1cc(NC(=O)c2nnn(CC(=O)Nc3cc(C)ccc3C)c2N)cc(OC)c1`, the survival is inactive: 94%.
Consider `C/C(=N\O)C(=O)C(CN1CCCCC1)CN1CCCCC1`, for which the survival is inactive: 88%.
On to `Cc1cccc(N2CCN(C(=O)c3cnc(N4CCCC4)nc3C)CC2)c1C`, for which the survival is inactive: 90%.
Turning to `COc1ccc(C2c3c(n(C)c4ccccc34)C(=O)N2CC(=O)Nc2cccc(Cl)c2C)cc1` (configuration not stated), the survival was inactive: 87%.
To `CC1CCCN(C(=O)Cn2ncc3c([nH]c4ccccc43)c2=O)C1` (configuration not stated) belongs inactive: 92%.
For the compound `CCCCOc1ccc(C(=O)NCc2nnnn2-c2ccc(C)c(C)c2)cc1`, the survival is inactive: 98%.
Under `CCOC(=O)c1c(C)oc2ncnc(Nc3cc(C)cc(C)c3)c12` stands inactive: 94%; under `O=C(NCCCN1CCN(c2cccc(Cl)c2)CC1)c1cnn(-c2ccc(F)cc2)c1-n1cccc1`, active: 32%; under `O=C(NCCc1csc2nc(-c3ccccc3F)nn12)C(=O)Nc1cc(F)ccc1F`, inactive: 79%.
Under `CCN1C(=O)c2ccccc2Sc2ccc(NC(=O)Nc3cccc([N+](=O)[O-])c3C)cc21` stands inactive: 86%; under `CCC1=C(c2ccc(C)cc2)S(=O)(=O)N=C1N1CCC(C(=O)NCc2ccc(N(C)C)cc2)CC1`, inactive: 86%.
To `COc1ccc(N(C(=O)c2ccc(C(C)(C)C)cc2)S(=O)(=O)c2ccc(Cl)cc2)cc1` belongs inactive: 81%.
As to `COc1ccc(CNC(=O)c2cnn3c(C)c(Cc4c(F)cccc4Cl)c(C)nc23)cc1`, the survival is inactive: 75%.
In the case of `Cc1ccc(N2CC(NC(=O)c3cccc(Cl)c3)CC2=O)cc1C` (configuration not stated), the survival was inactive: 75%.
`COc1ccc(C(=O)c2c(N)c(C(=O)Nc3cccc(OC)c3)c3ccccn23)cc1`: the survival was inactive: 79%.
To `Cc1c(C(=O)N(C)C)sc2c1c(=O)n(-c1ccc(Cl)cc1)c(=O)n2CC(=O)C(C)(C)C` belongs inactive: 102%; to `COc1ccc(-n2c(=O)c3sc4ccccc4c3n(Cc3ccccc3C)c2=O)cc1OC`, inactive: 97%; to `Cc1ccc(NC(=O)Cn2nc(N3CCN(c4ccccc4)CC3)ccc2=O)cc1F`, inactive: 83%.
To `COc1ccc(S(=O)(=O)N2Cc3ccccc3CC2C(=O)Nc2ccc(C)cc2C)cc1OC` (configuration not stated) belongs inactive: 68%; to `CCOC(=O)c1c(C)[nH]c(C)c1S(=O)(=O)N1CCC(C(=O)NCc2cccc(OC)c2)CC1`, inactive: 67%.
Turning to `CCC1CCCCN1S(=O)(=O)c1cc2c3c(c1)CC(=O)N3CCC2` (configuration not stated), the survival is inactive: 101%.
Under `CCC(C(=O)O)n1ccc2cc(S(=O)(=O)N3CCCCC3)ccc21` (configuration not stated) stands inactive: 82%; under `CCc1ccccc1NC(=O)Cn1c(=O)ccc2cc(S(=O)(=O)N3CCCC3)ccc21`, active: 46%.
To `CCCSc1ncc(Cl)c(C(=O)N(Cc2ccc(Cl)cc2)Cc2ccco2)n1` belongs active: 39%; to `CCOC(=O)N1CCc2c(sc3c2c(=O)n(-c2ccc(CC)cc2)c(=O)n3C)C1`, inactive: 105%.
To `COc1ccc(OCc2ccc(-c3nc(C#N)c(N4CCCCC4)o3)o2)cc1` belongs active: 42%; to `Cc1ccccc1OCC(=O)N1CCC(c2nc3ccccc3s2)CC1`, inactive: 51%; to `O=C(NCc1ccccc1)c1ccc2c(c1)CCN2S(=O)(=O)c1ccc(Cl)cc1`, inactive: 73%.
With `COc1ccc2cc3c(N)nn(C(=O)c4ccccc4Cl)c3nc2c1`, the survival was inactive: 87%.
Regarding `COc1ccc(-c2noc(CN(C(=O)C(C)Oc3ccc(C)cc3)C(C)C)n2)cc1` (configuration not stated), the survival was inactive: 63%.
To `CCn1cc(C(=O)NCCc2ccc(OC)c(OC)c2)c(=O)c2cc(S(=O)(=O)N(C)C3CCCCC3)ccc21` belongs inactive: 54%.
In the case of `O=C(NCc1cccnc1)c1cn(C2CC2)c2cc(N3CCN(C(=O)c4cccc(Cl)c4)CC3)c(F)cc2c1=O`, the survival was active: 1%.
On to `CCOc1ccc(NC(=O)N2CCN(c3ccc(Cl)c(Cl)c3)CC2)cc1`, for which the survival was inactive: 107%.
For `Cc1ccc(C)c(NC(=O)Cn2cc(S(=O)(=O)Cc3cccc(Cl)c3)c3ccccc32)c1`, the survival was inactive: 99%.
To `CCOc1ccc(-c2ncccc2O)cc1` belongs inactive: 105%.
Under `CCc1ccc(NC(=O)CN2C(=O)CSc3ccc(S(=O)(=O)N(C)C)cc32)cc1` stands inactive: 80%; under `Cc1ccc(N2CCN(C(=O)c3cc4cc5ccc(C)cc5nc4s3)CC2C)cc1` (configuration not stated), inactive: 76%.
